Assay results taken from patent US20200148785A1 (GLYCOTOPE, published 2020).

Target: T1, extracellular domain of recombinant human FcγRIIIa, His-tagged (human, UniProt P08637 part only)
T1 construct: extracellular domain; also called FcyRIIIa; CD16; not shown: His tag
Test: AlphaScreen bead competition assay, His-tagged FcγRIIIa

T1 sequence (P08637 17-208): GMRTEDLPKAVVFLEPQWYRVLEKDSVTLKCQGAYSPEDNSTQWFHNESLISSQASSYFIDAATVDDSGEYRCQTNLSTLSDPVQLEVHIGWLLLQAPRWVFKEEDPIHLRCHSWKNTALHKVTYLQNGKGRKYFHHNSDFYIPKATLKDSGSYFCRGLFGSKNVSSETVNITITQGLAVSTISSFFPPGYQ

B1: PM-PDL-GEX Fuc- (fucose-reduced bispecific anti-PD-L1/TA-MUC1 hIgG1) (bispecific antibody)
heavy: EVQLVESGGGLVQPGGSMRLSCVASGFPFSNYWMNWVRQAPGKGLEWVGEIRLKSNNYTTHYAESVKGRFTISRDDSKNSLYLQMNSLKTEDTAVYYCTRHYYFDYWGQGTLVTVSS[letters of human IgG1 constant region omitted]
light: not shown
modifications: N-glycans at N297 (EU), 1% core fucosylated
notes: Fucose-reduced glycoform (1%); also called PankoMab-antiPDL1-GEX Fuc-; non-mutated PM-PDL-GEX Fuc-
- fold enhanced binding against PM-PDL-GEX H9D8: ~5 fold
